# This is one part of the list. Sequences were assembled here from the parent chain. Values near 0.05 are background.
# B1: TEV protease; numbered along this chain (parent)
# chain: MGESLFKGPRDYNPISSSICHLTNESDGHTTSLYGIGFGPFIITNKHLFRRNNGTLVVQSLHGVFKVKDTTTLQQHLVDGRDMIIIRMPKDFPPFPQKLKFREPQREERICLVTTNFQTKSMSSMVSDTSCTFPSGDGIFWKHWIQTKDGQCGSPLVSTRDGFIVGIHSASNFTNTNNYFTSVPKNFMELLTNQEAQQWVSGWRLNADSVLWGGHKVFMVKPEEPFQPVKEATQL
# Variants of: B1
# Experiment: raw area under fraction-flipped curve 0-4 h after induction (AUC4h, not background-subtracted), DNA-recorder readout of cleavage of the substrate (dimensionless); higher = more cleavage of the substrate by the protease variant
# Details: temperature: 34 °C; time window: 0-4 h after rhamnose induction
# Method: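 In vivo DNA recorder in E. coli TOP10(DE3) ΔrhaA at 34 °C. Each TEVp single-site mutant (parent TEVp 0) is paired with a single-site variant of the 7-mer TEVs (canonical ENLYFQ|S). The substrate sits between flexible linkers in a Bxb1-sfGFP-TEVs-SsrA fusion, so cleavage stabilises Bxb1 and speeds flipping of a recombination array, read by NGS. The value is the raw area under the fraction-flipped curve over 0-4 h after rhamnose induction (AUC4h), with ≥20 reads per time point. It is not background-subtracted; inactive controls average about 0.047.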
# 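Further: Bxb1 expression induced with 0.2% (w/v) L-rhamnose at OD600 near 0.5, cultures sampled hourly, flipped fraction per protease–substrate barcode pair counted by paired-end Illumina sequencing.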
Variant,area with substrate ENLCFQS,area with substrate ENLDFQS,area with substrate ENLEFQS,area with substrate ENLFFQS,area with substrate ENLHFQS,area with substrate ENLKFQS,area with substrate ENLLFQS,area with substrate ENLNFQS,area with substrate ENLPFQS,area with substrate ENLVFQS,area with substrate ENLWFQS,area with substrate ENLIFQS,area with substrate ENLMFQS,area with substrate ENLRFQS,area with substrate ENLSFQS,area with substrate ENLQFQS,area with substrate ENLGFQS,area with substrate ENLTFQS
L190I,0.0713,0.0484,0.0702,0.0955,0.0685,0.0887,0.0633,0.0558,0.0694,0.0892,0.0725,–,–,–,–,–,–,–
Q146G,0.075,0.0615,0.0654,0.0867,0.0708,–,0.0867,–,–,–,0.0662,0.073,0.0827,0.0844,–,–,–,–
T159H,0.0912,–,–,0.0726,0.0428,–,0.0672,0.0658,–,–,–,0.0974,–,–,0.0647,–,–,–
E195W,0.0878,0.0459,–,0.0748,0.0897,0.0834,0.0585,0.0791,–,–,0.0629,0.072,–,–,0.0621,0.0682,–,–
E195I,0.0559,0.058,–,0.0863,0.0696,–,0.0577,0.0562,0.0736,0.0658,0.062,–,–,–,–,–,0.0688,–
N178P,0.0479,0.0751,–,0.0773,–,–,–,0.064,0.028,–,0.0479,–,–,0.0724,–,–,–,–
S171W,0.0708,–,–,–,–,0.0687,0.0573,–,–,0.0559,–,–,–,–,–,–,–,–
Q197H,0.109,0.0575,0.0679,–,–,0.0743,0.0735,0.0559,–,–,–,–,0.0458,0.0806,0.0544,–,–,–
G214T,0.0656,–,–,–,–,0.0775,–,–,0.0455,–,–,–,–,–,–,–,–,–
G214I,0.063,–,0.0542,–,0.0748,–,0.0534,0.0619,–,0.0771,0.068,–,0.08,–,–,–,–,–
G214H,0.0315,–,–,0.0539,–,–,0.045,–,0.0555,0.0598,–,0.0614,–,–,–,–,–,–
D161N,0.0648,–,0.0709,0.0774,0.0534,0.0534,0.0657,0.0425,0.0247,0.055,–,–,–,–,0.0544,0.0574,0.0666,–
S209M,0.0746,0.0553,0.0553,0.085,0.0614,0.096,0.0788,–,0.0636,–,–,0.0777,0.0613,0.0802,0.0546,0.0695,–,–
N206V,0.0814,0.0602,–,0.0617,0.0529,–,0.0501,0.059,–,–,0.0624,–,–,–,–,0.072,–,–
N206W,0.061,–,0.0771,0.0739,0.0613,0.0696,–,0.054,–,0.0682,–,–,–,0.0644,0.0675,0.0671,–,0.0594
W203F,0.0688,0.0603,0.0618,0.0858,0.0523,0.0983,–,–,0.0505,–,0.102,–,–,–,0.0603,–,–,–
I167Q,0.0748,0.0501,0.0776,0.0544,0.0389,0.0576,–,0.0521,0.0584,–,–,0.0663,–,–,0.0648,0.0618,–,–

Variant,area with substrate ENLCFQS,area with substrate ENLDFQS,area with substrate ENLEFQS,area with substrate ENLFFQS,area with substrate ENLHFQS,area with substrate ENLKFQS,area with substrate ENLLFQS,area with substrate ENLNFQS,area with substrate ENLPFQS,area with substrate ENLVFQS,area with substrate ENLWFQS,area with substrate ENLIFQS,area with substrate ENLMFQS,area with substrate ENLRFQS,area with substrate ENLSFQS,area with substrate ENLQFQS,area with substrate ENLGFQS,area with substrate ENLTFQS
I167L,0.071,0.0648,–,0.0828,0.0666,–,0.0692,0.0591,0.0569,–,0.0599,–,–,0.0646,0.0522,0.0392,0.0851,–
G150M,0.056,0.044,0.0589,0.0519,0.058,0.0645,0.0469,0.0589,0.0403,–,0.0564,0.0704,0.0609,–,0.0552,0.052,–,0.0374
G162E,0.073,0.0622,0.0574,0.105,0.0725,0.0805,–,0.0567,0.062,0.0897,–,–,–,0.0635,–,0.0754,–,–
G162Y,0.0751,–,0.056,0.0696,0.0571,0.0662,0.071,0.0608,0.0475,0.0111,–,0.0534,–,0.0701,0.047,–,–,–
F218E,0.0631,0.0616,–,0.0749,0.0605,0.067,0.0519,0.0663,0.0591,0.0624,0.0608,0.0607,–,0.0661,0.0769,0.0494,–,–
M188K,0.0765,0.0631,0.0692,0.0808,–,–,0.0543,0.0607,0.061,–,0.062,–,0.058,–,–,–,–,0.0802
M188V,0.0433,0.0412,0.0599,0.0624,–,0.0761,0.0938,0.0637,0.0696,0.0814,0.0494,–,0.0717,–,–,0.0724,–,–
A170N,0.0325,0.0711,0.0664,0.055,0.0291,0.0647,–,0.0489,–,–,–,0.0653,–,–,–,0.0561,–,–
T181W,0.0518,–,–,0.0653,0.0557,–,–,0.0648,–,–,0.0606,0.055,–,–,–,–,–,–
S169H,0.0428,0.0669,–,0.0931,0.0692,–,0.0547,0.0393,0.055,–,0.0459,0.0632,–,0.0674,0.0623,0.0688,–,–
Q151V,0.0662,–,–,0.0795,0.07,–,0.0652,0.0574,–,–,–,0.0708,–,–,0.0507,0.0555,–,–
D149W,0.0799,0.0741,0.0655,0.0778,0.0591,0.0693,–,0.0633,0.0456,–,–,–,–,0.065,0.048,–,0.0451,–
D149E,0.0773,0.0554,0.0826,0.0822,–,0.076,0.0817,0.0635,0.0529,–,0.0696,–,0.0803,0.0623,0.0531,0.0756,–,–
V157K,0.0529,0.0479,–,–,0.0397,0.0961,–,0.0879,–,–,–,–,–,–,–,–,–,–
L191R,0.0515,0.0423,0.0605,0.0504,0.0565,0.0648,–,0.0514,0.0643,–,0.0503,0.0634,0.071,0.0502,0.053,0.0389,–,–
H215Y,0.0607,0.0566,0.0444,0.0647,0.0634,0.0499,–,0.0662,–,0.0564,–,0.0578,–,0.0691,–,0.0684,–,–
L156A,0.0575,0.0738,–,0.0775,0.0654,0.0736,0.0766,0.0494,–,–,–,–,0.0581,0.0796,0.0649,0.0777,–,–
